Test results published in the supplement of paper PMC11417369.
This is one part of the list.

System: PF3D7_0420300 AP2 domain 1 (GST-tagged)
Experiment: gcPBM binding intensity (ln(normalized median fluorescence intensity)); higher = stronger DNA binding
Procedure, shortened: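 Using an Agilent 4 × 180k array, primer-extended double-stranded 36-bp intergenic genomic probes and negative controls were exposed for 1 h to GST-fused P. falciparum DNA-binding domains expressed in E. coli. Binding was carried out in 1× PBS with 1% milk, 0.2 mg/ml BSA, 0.5% salmon testes DNA and 0.03% Triton X-100, and protein was detected with Alexa488 anti-GST antibody and a 488 nm scan. Binding intensity is the highest Masliner-normalised natural-log median intensity across replicate spots of either probe orientation.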

Sequence	gcPBM binding intensity (ln)
TTATTCATATTATCATGTACTTATATATATTGTCAT [XGTACX_site2231]	9.36
ACTAAAAGATATATAATTTCTTTCTTATTTATTTTT [CACACA_negctrl_site842]	9.1
TATATTTATAGGTACACACACACATATAAATAAATA [CACACA_site6345]	10
TTTATTAGTAATTATACACACATATAAAATGAATAA [CACACA_site6754]	9.33
ATAAAATTATATTTTGCATGCAGGCCTTTTTCTTAA [TGCATGCA_site1030]	9.27
AAAAAAAAAAAAAACACACACATATATATATATATA [CACACA_site1891]	9.55
TTCCAAACCTCATTATGGAAAATAAAAAAATAAAAA [XGTACX_negctrl_site17]	8.94
TTCCAAAAAGTTATTACACACATATGTGCACATATA [CACACA_site6465]	9.53
ATAAAATATTTTTGAACATGCAGGTAAAAAATAAAA [TGCATGCA_site1019]	9.27
AGAATATTATATTATGCATGCATATAGAAAAATATA [TGCATGCA_site302]	9.21
TGTAATATAAAATTTTGTACTCAAAAATTTATATAT [XGTACX_site3252]	8.9
ACTTATAAAAACATATACCCCATCGCATTTTTTCCA [XGTACX_negctrl_site177]	9.44
AATTTTTTATATGTCACACATTTATTATTATTATTA [CACACA_site4198]	9.53
AGTATTCATAAAAATACACACATGGAAAAATAAACT [CACACA_site6796]	9.78
TATATATTTTTTTTTTGTACTCACAATATATGTATG [XGTACX_site8024]	9.27
AAATTAAAATATAATACACACATAAAAAAAAAAAAA [CACACA_site4183]	9.73
TGTATAAGTATTAATACACACACAAAATAATAAAAA [CACACA_site9156]	9.8
TACTTACATTATTTATTTATATAAAAAGTTAATTAT [XGTACX_negctrl_site433]	9.01
TATTTAAAAAGAAAAAAAAAAAAAAAAATACATATA [CACACA_negctrl_site164]	9.16
AAAAAAAAAAAATATACACACTAATATATTTTTTTA [CACACA_site4604]	9.22
TATATACGCAAACACACACACACATACACCCACATA [CACACA_site1724]	10.2
TATTAAATTTATCGGAGTACATTTAAATGTATATAC [XGTACX_site7975]	9.1

Sequence	gcPBM binding intensity (ln)
TATTACTATGTTATAACTTTTTTAAACGTGATCATA [TGCATGCA_negctrl_site128]	9.11
TATGTGTAATATTTTTGTACAGAAAAAAAAAAAAAA [XGTACX_site7075]	8.93
AAAAAAAAAAAAAACACACACATGCACATCATATTA [CACACA_site4467]	9.64
ATATTTTTATTAGTAGTGCAATTTAGTGTATATATA [GTGCAC_site9542]	9.27
TCATTTCACAGACACACACACACAATATATTTCCTT [CACACA_site9295]	10.2
AAAAAAAAAATTAAAACATGCATAAATAAATATATT [TGCATGCA_site866]	9.41
TTTTTTTTTCTTTTCAAACACACAATTGGTATATAT [CACACA_site3321]	9.39
TAGTAGTTATCACTAACATGCAATAATATTATTTAA [TGCATGCA_site161]	9.08
CGTATAAATATACGTGCATGTAACTTTTTCTATATT [TGCATGCA_site981]	9.38
CTATTTATTTTTGATGCATGCCAAATATAGAAAAAA [TGCATGCA_site368]	8.9
TGACTGTAGATATTTTGTACATAACCTAATATATAT [XGTACX_site970]	9.27
TACAGTTCAATGAAGGTGCAATTAATATATAAAATA	9.19
ATAATATAATACGAAGGTACACATTTTCTTAATATA [XGTACX_site7947]	9.38
TTATGTACAATTTCTTCTTTCTTTTTTCCTAAAGAC [CACACA_negctrl_site1193]	8.87
ATAACATATATATATACACACACATATATATATGAA [CACACA_site7983]	9.79
TTTTTTTTTTTTTTTTGTACACATAATATGAATAAT [XGTACX_site2661]	8.93
ATATATTTTTTGAATACACACATATTATAGGTAATA [CACACA_site6709]	9.42
TATAATATAATATATGCACACAAATATGTATATATG [CACACA_site8664]	9.32
AACTATATATAACTAGTGCAAAGACAATATTTTAAA	9.3
AAAATTTAATATAATGCACACATAAAAAAAAAAAAT [CACACA_site8425]	9.53
TTCTTTAAAATAAATTGTACTAACATATATATATAT [XGTACX_site6045]	9.09
AAATATAATATATGCACACATACATACATATATATA [CACACA_site104]	9.45
